# According to PubChem BioAssay AID588453 (National Center for Advancing Translational Sciences (NCATS), 2011):
# In all, about 390,000 compounds went through this assay and about 4,000 (1%) were called active. Inconclusive means that the source gave no clear call. Such entries were picked first, then a sample of the others. Calls follow the shape of the dose curve; as a rule, active = well fitted inhibition curve with a large enough effect; inconclusive = small, poorly fitted or top-dose-only effect; inactive = no such curve, though single readings can be large or run the other way. Potencies of inconclusive entries are doubtful fits and often do not repeat.
# Target: Thioredoxin reductase 1, cytoplasmic (Rattus norvegicus) (UniProt O89049)
# Test: qHTS Assay for Inhibitors of Mammalian Selenoprotein Thioredoxin Reductase 1 (TrxR1): qHTS; also: nearly all actives have a fitted effect of over 65% in size
# Settings: recombinant rTrxR1, NADPH fluorescence consumption, selenite substrate; series mostly up to 114 µM; activity change, negative = inhibition: at the top concentration
# How it was run: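 Rat TrxR1 (90 nM in the dispensed reagent) was pre-reduced with 400 uM NADPH for 5 min at room temperature, then incubated with compound for 15 min. After 400 uM selenite was added, NADPH fluorescence (Ex 340/Em 450 nm) was followed for 8 min.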
# % is scaled to controls: 0 for no effect and ±100 for the full control effect; potency is read from the fitted curve at half-maximal effect; tags tell the direction and shape of the fitted curve.
# UniProt O89049, sequence (O89049 whole entry, looked up): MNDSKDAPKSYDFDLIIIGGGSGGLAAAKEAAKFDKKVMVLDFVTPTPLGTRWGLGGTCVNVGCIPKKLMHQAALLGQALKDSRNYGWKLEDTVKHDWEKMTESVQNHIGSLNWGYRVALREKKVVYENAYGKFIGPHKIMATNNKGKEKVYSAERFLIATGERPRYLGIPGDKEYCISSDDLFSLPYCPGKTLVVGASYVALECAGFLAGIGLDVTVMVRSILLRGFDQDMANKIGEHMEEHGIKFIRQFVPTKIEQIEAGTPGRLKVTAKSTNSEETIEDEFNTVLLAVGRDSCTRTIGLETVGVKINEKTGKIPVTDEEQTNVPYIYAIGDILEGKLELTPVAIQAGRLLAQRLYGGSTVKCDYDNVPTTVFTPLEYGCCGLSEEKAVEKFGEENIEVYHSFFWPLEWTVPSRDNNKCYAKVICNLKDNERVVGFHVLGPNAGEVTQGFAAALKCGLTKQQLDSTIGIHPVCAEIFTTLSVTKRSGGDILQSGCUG
Compound,Potency,"activity change, negative = inhibition"
CCOC(=O)N1CCC(Nc2c(-c3ccccc3)c(=O)c2=O)CC1,"inconclusive: 89.1 µM [inhibitor, single point]",–
C=CCSc1nnc2c(n1)OC(c1cccnc1)N(C(C)=O)c1ccccc1-2 (stereo not given),"inconclusive: 28.2 µM [inhibitor, partial curve, poor fit]",–
CCC(=O)NC(=S)Nc1ccccc1OC,–,inactive: 25.9% [at 57.1 µM]
Oc1ccc(/C=N/Nc2cc(N3CCOCC3)nc(N3CCOCC3)n2)cc1,–,inactive: -26.7%
CCC(CC)C(=O)N1N=C(c2ccc(NS(C)(=O)=O)cc2)CC1c1ccc(C)cc1 (stereo not given),"inconclusive: 17.8 µM [inhibitor, single point]",–
O=C(CSc1nnnn1-c1ccccc1)CC(=O)Nc1ccc(Cl)cc1,"inconclusive: 11.2 µM [inhibitor, partial curve, poor fit]",–
CN(Cc1ccccc1F)C(=O)c1ccc(Oc2ccccc2)cc1,–,inactive: 29%
Cc1c(NS(=O)(=O)c2cc(C(=O)NCc3cccnc3)cc(Cl)c2Cl)c(=O)n(-c2ccccc2)n1C,"inconclusive: 89.1 µM [inhibitor, single point]",–
COc1ccccc1NS(=O)(=O)c1cccc(C(=O)N/N=C/c2cn(-c3ccccc3)nc2-c2ccccc2)c1,–,inactive: 9.32% [at 57.1 µM]
CCC(=O)C1CCCN(C(=O)CCc2nnc(-c3ccc(C(C)=O)s3)o2)C1 (stereo not given),"inconclusive: 79.4 µM [inhibitor, partial curve]",–
CCOc1ccc2nc3cc(N=Nc4ccc(N)nc4N)ccc3c(N)c2c1,–,inactive: -5.9% [at 11.4 µM]
CCCCCCCC(=O)N/N=C/c1ccc([N+](=O)[O-])o1,"inconclusive: 22.4 µM [inhibitor, full curve]",–
CCOc1ccc(-n2nnnc2SCC(=O)Nc2ccc(NC(C)=O)cc2)cc1,–,inactive: -5.72%
O=C(/C=C/c1ccc([N+](=O)[O-])s1)N1CCCCC1,"inconclusive: 70.8 µM [inhibitor, single point]",–
CCOc1ccc2nc(NC(=O)CSc3nc4ccccc4c(=O)n3Cc3ccco3)sc2c1,–,inactive: -11.9%
CCOC(=O)c1ccccc1NC(=O)N1CCCn2nc(C)cc21,–,inactive: 17.5%
CCOc1ccc2[nH]c3c(N4CCN(C(=O)c5ccco5)CC4)ncnc3c2c1,"inconclusive: 79.4 µM [inhibitor, partial curve]",–
N#CC1=C(N)Oc2n[nH]c(-c3cccs3)c2C1C1C=CCCC1 (stereo not given),"inconclusive: 70.8 µM [inhibitor, single point]",–
CCCN1CCc2c(sc(NC(=O)CCS(=O)(=O)c3ccccc3)c2C(=O)OC)C1,active: 50.1 µM,–
O=C(N/N=C/C(Br)=C\c1ccccc1)c1ccc2nc[nH]c2c1,"inconclusive: 70.8 µM [inhibitor, single point]",–
COc1ccc(NC(=O)c2sc3nc4n(c(=O)c3c2C)CCC4)c(OC)c1,–,inactive: 39.1% [at 11.4 µM]
FC(F)(F)COc1nc(N2CCCCC2)nc(N2CCNCC2)n1,"inconclusive: 14.1 µM [inhibitor, partial curve]",–
O=C(N/N=C/c1ccccc1C(F)(F)F)c1ccc2nc[nH]c2c1,–,inactive: -11%
COc1c(Br)cc(/C=N/n2c(-c3ccccc3)n[nH]c2=S)c(O)c1Br,"inconclusive: 1.78 µM [inhibitor, full curve, poor fit]",–

Compound,Potency,"activity change, negative = inhibition"
COc1ccc(Br)cc1CNC(=O)C1CCN(c2nnc(-n3cccc3CNc3ccc(C)cc3)s2)CC1,–,inactive: -19.3%
O=C(N/N=C/c1ccoc1)c1cc(O)cc(O)c1,–,inactive: -15.8%
CCN(CCO)Cc1cc(=O)oc2c(C)c(C)ccc12,"inconclusive: 15.8 µM [inhibitor, full curve]",–
CCOC(=O)CNC(=O)CSc1nnc(-c2ccco2)n1Cc1ccco1,"inconclusive: 11.2 µM [inhibitor, partial curve, poor fit]",–
CN(C)S(=O)(=O)c1ccc(/C(O)=C2/C(=O)C(=O)N(Cc3cccnc3)C2c2ccncc2)cc1 (stereo not given),"inconclusive: 56.2 µM [inhibitor, partial curve]",–
CC1=NOC(=O)/C1=C\c1ccc(-c2cccc(Cl)c2)o1,"inconclusive: 89.1 µM [inhibitor, single point]",–
Cc1cc(NC(=O)Nc2ccc(F)cc2)no1,–,inactive: 16.1%
O=c1[nH]c(-c2ccccn2)cc2ccccc12,"inconclusive: 79.4 µM [inhibitor, partial curve]",–
CN(C)c1ccc(C(I)C(I)c2ccnc3ccccc23)cc1 (stereo not given),"inconclusive: 11.2 µM [inhibitor, full curve]",–
Cc1c(Cl)cccc1NC(=S)N(CCCN1CCOCC1)Cc1ccco1,"inconclusive: 44.7 µM [inhibitor, partial curve]",–
CCOc1cc(-c2cc(-c3ccc(C)o3)nc(N)c2C#N)ccc1O,–,inactive: -0.951%
Cc1ncc(CO)c(/C=N/NC(=S)Nc2ccc(Cl)c(Cl)c2)c1O,"inconclusive: 35.5 µM [inhibitor, single point]",–
O=C1CC(Nc2ccc(N3CCOCC3)cc2)C(=O)N1c1ccccc1 (stereo not given),"inconclusive: 7.08 µM [inhibitor, single point]",–
O=S(=O)(c1ccc2c(c1)OCCO2)N1CCN(c2nc3ccccc3s2)CC1,–,inactive: 29.8%
CC(=O)O/N=C/c1c(N2CCOCC2)n(C)c2ccccc12,–,inactive: 2.24%
NC(=S)N/N=C\c1ccc(-c2cccc(Cl)c2Cl)o1,"inconclusive: 31.6 µM [inhibitor, partial curve, poor fit]",–
COc1ccc(NC2CCCN(C(=O)c3ccc4nccnc4c3)C2)cc1OC (stereo not given),"inconclusive: 79.4 µM [inhibitor, single point]",–
CN(C(=O)c1ccncc1)c1nnc(-c2ccncc2)s1,"inconclusive: 28.2 µM [inhibitor, single point]",–
COc1cc2ccccc2cc1C(=O)N1CC(C)CC(C)C1 (stereo not given),–,inactive: 18.9%
CC(C)C[C@H](NC(=O)c1nc[nH]c1C(=O)N[C@@H](CC(C)C)C(=O)OCc1ccccc1)C(=O)OCc1ccccc1,–,inactive: 11.3%
CCCN(Cc1cccs1)C(=O)Nc1cc(C)cc(C)c1,–,inactive: 8.39%
C/C=C/C=C\C(=O)Nc1cccc(C2=NOC3(C2)C[C@H](C(N)=O)N(C(=O)/C=C/C)C3)c1 (stereo not given in full),active: 14.1 µM,–
Cc1cc(C(=O)Nc2cccc3ccccc23)co1,"inconclusive: 44.7 µM [inhibitor, partial curve]",–
O=[N+]([O-])c1ccc(Sc2cccc[n+]2[O-])c2nonc12,active: 1.58 µM,–

Compound,Potency,"activity change, negative = inhibition"
CC(C)(C)C(=O)Nc1ccc(-c2nc3ccccc3s2)cc1,–,inactive: -7.79%
Cc1nc(CN(C)C(=O)CC2C(=O)NCCN2Cc2ccc(-c3ccccc3)cc2)cs1 (stereo not given),"inconclusive: 44.7 µM [inhibitor, partial curve]",–
COC(=O)/C=C\C(C#N)(C#N)N=Cc1ccc(OC)cc1,active: 2.24 µM,–
Cc1ccc2[nH]c(=O)c(CN(CCN3CCOCC3)C(=O)Nc3ccc(F)cc3)cc2c1,"inconclusive: 1.12 µM [inhibitor, single point]",–
CCOC(=O)c1sc2nc(CC(=O)OC)nc(NCc3ccco3)c2c1C,"inconclusive: 39.8 µM [inhibitor, partial curve]",–
O=c1[nH]c2cc3c(cc2cc1C(c1nnnn1Cc1ccccc1)N1CCN2CCCC2C1)OCCO3 (stereo not given),"inconclusive: 15.8 µM [inhibitor, partial curve, poor fit]",–
COc1ccc(-n2ccnc2SCC(=O)Nc2cc(C)on2)cc1,"inconclusive: 89.1 µM [inhibitor, single point]",–
O=C(NNC(=S)Nc1ccc(C(=O)O)c(O)c1)c1ccncc1,"inconclusive: 15.8 µM [inhibitor, partial curve, poor fit]",–
Nc1ccc(N)c(C(=O)O)c1,"inconclusive: 25.1 µM [inhibitor, full curve, poor fit]",–
Nc1ccc2nc(C(F)(F)F)[nH]c2c1,–,inactive: -2.13%
CCOC(=O)c1cc(CC)sc1N1C(=O)CC(Sc2ncccc2C(=O)O)C1=O (stereo not given),"inconclusive: 79.4 µM [inhibitor, partial curve]",–
CC(C)CCNC(=O)c1cccc(S(=O)(=O)N2CCc3ccccc32)c1,–,inactive: -0.849% [at 57.1 µM]
O=C(NC12CC3CC(CC(C3)C1)C2)c1ccc(-c2cccc(Cl)c2)o1,"inconclusive: 79.4 µM [inhibitor, partial curve, poor fit]",–
Cc1[nH]c2ccccc2c1C(c1ccccn1)N1CCC(C)CC1 (stereo not given),"inconclusive: 10 µM [inhibitor, partial curve, poor fit]",–
CC(=O)Nc1nonc1-c1nc2ccccc2n1N(C(C)=O)C(C)=O,active: 56.2 µM,–
O=C(N/N=C/c1cccc(O)c1)c1ccc2c(c1)OCCO2,–,inactive: 34%
Cc1ccc(C)c(NC(=S)Nc2cccc3cnccc23)c1,"inconclusive: 89.1 µM [inhibitor, partial curve, poor fit]",–
CC1=C(C(=O)OC(C)C)C(c2cncc(-c3ccc(F)cc3)c2)C(C#N)=C(N)O1 (stereo not given),"inconclusive: 39.8 µM [inhibitor, partial curve]",–
c1ccc(CSc2nccc(-c3ccco3)n2)cc1,"inconclusive: 35.5 µM [inhibitor, full curve]",–
CCCCCn1c(NC(=O)c2ccco2)c(S(=O)(=O)c2ccc(C)cc2)c2nc3ccccc3nc21,"inconclusive: 28.2 µM [inhibitor, partial curve, poor fit]",–
CC1(C)Cc2[nH]c(=S)c(C#N)cc2CO1,"inconclusive: 1 µM [inhibitor, full curve, poor fit]",–
Cc1ccc(C(=O)C(C(=O)/C=C/c2ccccc2)=C2SCCCS2)cc1,"inconclusive: 39.8 µM [inhibitor, single point]",–
